# Measured values taken from the supplement of paper PMC3334620.
# The full ranking holds about 33,000 sequences; the median of “E-score (-0.5 to 0.5)” is about -0.056, and the highest 2% start at about 0.38. This is one part of the list.
# Target: Stb4 (UniProt P50104)
# Experiment: PBM E-score (8-mer binding enrichment) (E-score (-0.5 to 0.5)); higher = stronger / more preferred TF binding; most listed sequences are background and not binding sites
# Conditions: protein concentration: 200 nM; construct: GST-DNA-binding domain
# Protocol: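 Universal 'all 10-mer' protein binding microarrays (Agilent AMADID 015681) probed with GST-tagged S. cerevisiae TFs (full-length or DBD) made by in vitro transcription/translation (PURExpress), about 100-200 nM. Bound TF was detected with fluorescent anti-GST. Each ungapped 8-mer (which stands for itself and its reverse complement) is scored by the PBM enrichment score (E-score), a modified Wilcoxon-Mann-Whitney statistic from -0.5 to +0.5, computed with the Universal PBM Analysis Suite. Scale: above 0.35 generally sequence-specific binding.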
row,Sequence,PBM E-score
1,GTCGCCCA,-0.173
2,ATATAGGG,-0.161
3,TGCCTTAA,-0.244
4,CTACTACC,0.0495
5,ACACGTAA,-0.0577
6,GGTTAAAA,0.177
7,TTCTCCAA,-0.139
8,GCAAGGCC,-0.0186
9,CGCTAACG,0.0009
10,CCTAAACA,-0.149
11,ATATCCAA,0.0444
12,AATTGTTC,0.136
13,TAGTCTAA,-0.0612
14,CCGAGCGC,0.44
15,CGTGGGTA,0.104
16,CTTGTCAC,-0.233
17,AGATGTGG,-0.0748
18,AGCATGAC,-0.302
19,CTGAGTCC,-0.0794
20,GCAAGTAC,-0.192
21,AATCGATC,0.0225
22,GAAAGGGC,-0.0973
23,AAGACAAG,0.0278
24,GGAGGGGA,0.196
25,GCCAACAA,-0.163

row,Sequence,PBM E-score
1,CCAGCAAG,-0.175
2,TGCGGTAA,0.0561
3,CCTATGCC,-0.174
4,CACGGCCA,-0.148
5,GAGGTAGC,-0.0938
6,CGGTCACA,-0.0886
7,ACAAAACG,0.037
8,AATAGTGT,0.213
9,ACCGGTCC,0.19
10,GACTAACA,-0.048
11,CCTCTGTA,-0.251
12,AGCAGACC,-0.0722
13,AAGTCGTG,-0.143
14,TACCCCCA,-0.354
15,CGTGCTGA,-0.153
16,AGCCTTAC,-0.284
17,GCCGGGAA,0.322
18,AAACGACG,-0.0616
19,AACCTAGG,-0.012
20,CCGAGGGC,0.431
21,GATCCTGA,0.121
22,CAGCATCC,0.121
23,CCGACGAG,0.284
24,CGGGGCAG,0.134
25,CTTGAATC,-0.11

row,Sequence,PBM E-score
1,CTGGAGGA,-0.336
2,GAGAACTA,-0.0973
3,CACCCAAG,-0.00684
4,TCATAGCA,-0.245
5,CAAGATCC,0.146
6,GAATAAAC,-0.0448
7,ATGCCAAT,-0.158
8,AGCGTCCC,0.0771
9,ATCACCTC,-0.141
10,GTAGGGGA,-0.0129
11,ACGCGACT,-0.164
12,GCGTGGTA,0.0418
13,ACGAGGAA,-0.0251
14,ACTCCTGC,0.067
15,AAGCAGAG,-0.226
16,ACGCGACA,-0.115
17,GCACTTTA,0.00064
18,ATCTCGGG,0.449
19,GCAGACCA,0.0506
20,CATCTTAG,-0.095
21,GTTTACCA,-0.0652
22,ATCGATAG,-0.265
23,GCATCCAA,-0.207
24,CGACTACC,0.148
25,ATGCGACC,0.0749

row,Sequence,PBM E-score
1,CTTGTTAC,-0.206
2,ATGGTTAA,-0.164
3,AAGGCCTT,-0.207
4,CCGTCGCA,0.116
5,CAATACGG,0.083
6,AGCAAGTG,-0.343
7,CATTCGGG,0.343
8,ATTGGAGG,-0.268
9,GCGCGTCA,-0.206
10,CCGTCTCA,0.0165
11,ACTAGCTC,-0.0635
12,CATGAAGG,-0.0968
13,AATTTATA,-0.0486
14,CAGTGCGA,-0.231
15,CCGAAGCC,0.371
16,AGCTGATG,-0.135
17,CCGGACTC,0.266
18,AATCCCCT,-0.155
19,AATTAGTC,0.105
20,GCCCAACA,-0.183
21,CAGTACAG,-0.0544
22,CAGGCTTC,0.0742
23,AGGGTACG,-0.0957
24,ATCCTAGA,-0.00757
25,ACAGTAGA,-0.113

row,Sequence,PBM E-score
1,CAGTAGGG,-0.198
2,ACGTCCCC,-0.0302
3,AGTGTGAC,-0.327
4,ATAGTCGG,0.203
5,GGCGCGGA,0.232
6,CGGCTCAC,0.231
7,AATGGAAA,0.0387
8,CCGGGGAA,0.24
9,CGCGAGCC,0.143
10,GCAGAGAA,-0.17
11,GCCGGTCC,0.233
12,GATTATAA,0.205
13,ACTGGTCA,-0.0552
14,ATTGAGAG,-0.15
15,AGCGGTAC,-0.00183
16,AAAGGATA,-0.0207
17,AAGGGCAT,-0.294
18,GTCTCAAC,-0.00508
19,AGTCCGAT,0.236
20,AATCACAA,-0.0604
21,ACTTGCTG,-0.29
22,ACGGCCTC,-0.12
23,CTCATTAC,-0.0922
24,TCCGCCAA,0.233
25,GTTTACAA,0.078

row,Sequence,PBM E-score
1,GGCATGCA,-0.236
2,AACCCTAC,-0.203
3,ATTATACG,0.138
4,ATGGACCC,-0.0539
5,GGCTCGTA,-0.0188
6,CCCACCCC,0.332
7,AGCCTCTA,-0.184
8,CAGAGTGC,-0.108
9,AGATATTC,-0.124
10,AATAAACG,-0.029
11,ACATCTTG,-0.193
12,AGGAGCAC,-0.073
13,CATGTGTA,0.015
14,AGGCCAAG,-0.0945
15,AACAGGGA,0.0167
16,CGAATGCA,-0.203
17,AGTCCAGA,-0.048
18,AGGAGCTA,-0.112
19,CGGAGATA,0.373
20,ATCCCGTA,0.182
21,AAGGGATC,-0.0355
22,CAGCACCG,0.137
23,ACAAATAC,0.0453
24,ATCGGGAC,0.284
25,CGTCTCCA,-0.0515

row,Sequence,PBM E-score
1,TCCTCTAA,-0.171
2,TAGGGTGA,-0.0626
3,CCAGACAA,-0.0506
4,TAACCCGA,0.385
5,TACTACGA,-0.209
6,CTACCCTA,-0.244
7,CCGAGTAA,0.345
8,CTGAAGAC,0.0427
9,GACTGCAC,-0.182
10,ACGACTTA,0.00412
11,GGTCACAC,-0.14
12,ACGAAATC,-0.0845
13,CAATCGCC,-0.00387
14,AGCGATCG,-0.13
15,AATTCAAT,-0.00516
16,ATCAGCAC,-0.139
17,GAACATGC,-0.129
18,AGTCGAAC,-0.0182
19,CGCAAATA,-0.0524
20,CCCTCACC,-0.107
21,GATTTCAC,-0.0278
22,GGGCGTCA,-0.00101
23,GCCGCCAA,-0.0226
24,CCGCGTCG,0.247
25,AAGAGGGG,-0.0851

row,Sequence,PBM E-score
1,GCTTTAAA,-0.133
2,GATAATAC,0.0339
3,AATGTAAG,0.00441
4,ATACATAT,0.0739
5,ACGCAGGA,-0.261
6,ACCCAATA,-0.151
7,CAACACAA,-0.13
8,ATAACATG,-0.0103
9,AGCGCTGC,-0.219
10,AATGGGCT,-0.234
11,TGGGGTAA,0.0799
12,GCGCGGCC,0.112
13,ACGCCCTG,-0.00993
14,CATGCGCA,-0.144
15,CCGACGCA,0.238
16,AACCGGAA,0.377
17,AAGCAACG,-0.0601
18,ATGACTGA,-0.107
19,GAACCGCA,0.0725
20,AACCTAGA,-0.0131
21,AATGCTAC,0.137
22,CTAGTGGA,-0.228
23,GTCTCTTA,0.155
24,CGCATTCA,0.0585
25,GCGCCCAC,-0.106

row,Sequence,PBM E-score
1,AGAGGGCA,-0.289
2,ACGAAACT,-0.0155
3,CGCAGCGC,-0.036
4,ATTCGTCC,0.0896
5,ATATACGA,-0.202
6,ACATGTCT,-0.0405
7,ATAGCGAC,-0.166
8,AAAGTGAG,-0.136
9,CCGGTTAC,0.26
10,ATCAACCA,-0.201
11,CCGAGCCG,0.468
12,ATGATCAA,-0.209
13,GGTCCTAC,-0.163
14,TATTGAAA,-0.0261
15,GCTGATCA,-0.13
16,ATTGCCCG,0.183
17,ATTCTTGA,0.0217
18,CATGGCAG,-0.047
19,AGCGCTGA,0.0271
